# Measured values from the supplement of paper PMC10681739.
# The full ranking holds about 2,700 sequences; the median of “arbitrary fluorescence units” is about 4,100, and the highest 2% start at about 54,000. Some of the results follow.
# Target: T1, ETS1 (UniProt P14921)
# T1 sequence: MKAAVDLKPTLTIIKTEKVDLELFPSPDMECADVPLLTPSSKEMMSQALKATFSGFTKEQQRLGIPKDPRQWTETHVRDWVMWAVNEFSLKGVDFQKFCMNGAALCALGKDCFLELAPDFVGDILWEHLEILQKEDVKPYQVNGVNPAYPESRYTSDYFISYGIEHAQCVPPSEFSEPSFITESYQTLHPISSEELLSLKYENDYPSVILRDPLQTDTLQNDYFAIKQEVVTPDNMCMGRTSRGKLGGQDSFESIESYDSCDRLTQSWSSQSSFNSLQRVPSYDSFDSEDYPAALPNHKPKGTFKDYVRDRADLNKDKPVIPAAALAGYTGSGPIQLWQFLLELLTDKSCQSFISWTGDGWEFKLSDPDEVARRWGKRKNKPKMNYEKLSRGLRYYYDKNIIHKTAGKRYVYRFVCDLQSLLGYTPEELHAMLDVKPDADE
# Experiment: ETS1 binding intensity (PBM fluorescence) (arbitrary fluorescence units); higher = stronger binding
# Conditions: ETS1 concentration 10 nM
# Experimental: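 gcPBM on wild-type 36-bp genomic probes with two neighbouring ETS1 sites (4-24 bp apart). Recombinant human ETS1 (10 nM) was detected with anti-ETS1 antibody fluorescence. Values are medians over 3 replicate spots. The probes sit in constant array flanks that are not printed.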
row,Sequence,ETS1 binding intensity
1,AGCAGGAAGGACCTCAGTCCTCCAGTGCGGATGCTG,207
2,TCCACTTCCGGGTCCGGGACACCGCCCGGATCTTGC,64200
3,TGCCAAGTTACACTTCCTGTTTCCTCTCTGTGTGCC,31700
4,AATACACACAGGAAGCAGCCCATTTCCTCAGAAGTT,5650
5,GGGGCGGAAGTGGGTGTGGCCACGGGCGGAAGCACT,15200
6,CGCCGGTTGGGGGGAAGTAATTCCGGTTGTTGCACC,2060
7,CACCACTTCCTGTTTCTGAGTCATCAGGAAGGTAAT,58900
8,AACCAAAAGACAGGAAATAACGGATGCTGGTGAGAA,7280
9,AGACAAACATCCTCTTCAGCTAGAGGAAGCTCCTTC,6260
10,AAAGGGTAAACAGGATGTGACTTCCTGGATCACCAC,19500
11,GGCGCACTTCCTCTTTCTGGTTTTAGGATGTCACCT,20000
12,TCTATAGGAAACAGAGGTCAAGAGAGGGGAAGTGAC,189
13,TTGACTCTTCCGCAGCAGTCATAACATCCTGTCTTG,6330
14,CCTCGGTTCCTGTCTTCTGCTCCTGTTTCCGCTCTG,5570
15,GGAGCGGAAAGGTACCAGGGCAGCTGCTTTCCGCTG,284
16,ATCAAGCCTTCCGCGCCGCGATTTGGGATGTGGGAG,171
17,AACAGGAAGCCCAGGAGCAGGTCACTCAGGATGGGA,628
18,TCTCGACTTCCGGTTCACCCAGCATTTCCTCTTCCC,103000
19,AGCACCGGGAAGCGACCTCCCTGACGGAAGCGGGCG,432
20,GGGGCCTGCAGGAAGCCCCAGGAGGAAGCGAGACTT,761
21,CGAGTGCACAGGATACGGCTGCTTCCTCCCCTGGCT,2760
22,TATCAGAAACAGGATGCGCCCATCCTGGAGCTGGCG,3710
23,TACAACAGGATGTGGCCCAGAAAGCAGGAAGGGGGC,10500
24,GGCGGTGTGCCCCGGAAGCGGAAGTAGATTCTCCTA,10200
25,ATTTTCGGTCTTCCGGTCAGCCGGAACCACTCACAC,29800
26,CTCCCCAGGACGGAAGGTGGCCGGAAGAGCCCCGTC,1480
27,TTAGAGGAAACAGTAAATGATTAGTCATTTCCTCTG,526

row,Sequence,ETS1 binding intensity
1,CAGTGAGTCACGTTTCCGTTTCCTCTCACTGTTCCA,7310
2,GAAGTCAGTTTCCTGACTCTTGAAGGAAGTGGCCTT,4710
3,GAACCTCCTTGCCGGAAGCGGAAGTGCGTCACGGCG,7530
4,ACGGCTTCGGATGCTATGAAACTACTTCCGCATGAT,991
5,GACACAACTTCCGGCTTCTGGCGGCGGAAGAGGACA,90100
6,TCTCCAGGAAGTTGGTTGATGATGGACTTCCGAGGC,3450
7,TGACAAGGGAAGTGCCTCTAAGAAAGGAAGTAAAAT,560
8,GACTCTACAGCACTTCCGCCTTCCGTCGCGAGGGCC,28100
9,GAACAAGGGCAGGATGTAATAAGGAAACAGATGGTA,3120
10,CGCAGCCAGCCACTTCCTCCTTCCTGAAACACTCTC,12800
11,GTCGTGGCTTCCTGGTGAGTAAACTTCCTGTTTTTC,9200
12,GCTTGGCAGTCAGGAAGGACTTCCTGTTTCTGCTTC,14400
13,GGACAGCCGCCGCTTCCGGTTTCCGCGAGCGCAGGC,43000
14,CATGGCTTTCCTGTTTGGGTCTGAAGGAAGTGGCGG,8210
15,CTGGGTCATCCGGCAGCCCAGCAGCTTCCGGCCCCC,10300
16,CAGACTTCCGGGGTCGAGAACTACAACTTCCGACTT,61700
17,GCTGGGGCCCGGAAGGACGAAGCTTCCCGGCAGAGA,1660
18,GAGCTTCCGCTAGTCTTTCATCTTCAAAGGAAATCA,28900
19,CCTGGGAAGGAGGAAATTCTGTTTCCTGTCCTTGTT,5010
20,TGCAGGAAGCTGCAAGTCTCTCTGTAACATCCTGGG,587
21,TCTAGAGGAAGTTGCTCTGTGGCCACCGGATGCAGA,3350
22,GTGCCACCGGCATCCGGGCCAGGATGGCGCACTCAC,6120
23,AAAACATGGTAGGAAATGCAGTTTCCTGTGATCACA,2990
24,GCGTTACTTCCGGCGCGCGGCGGGCGGAAGTCCGGG,69700
25,CTCTAAGGAAGCGGTGTGTGCACCCACATCCTGGAC,469
26,TTACCTCAGGATGCGACGTTCCCGCTTCCGCCAGGC,946
27,ATGTTGTGACAGCTTCCTGCTTCCTCCTTCAGAGCT,8370

row,Sequence,ETS1 binding intensity
1,TATTCTGAACCACTTCCTGCTTCCGCAGCTTCAAAG,25200
2,ATTTGGGAAGACTTCCTGAAGGAAGCAGTAGTTAAG,3790
3,CCCTGGGGATGTGCTATCACCCATGCTTCCTGCAGA,234
4,CAGTACCAGGAAGTGCAGGCGATGAGGAAGCGCACG,2260
5,ACCGCGGGGAGGAAGCGCCCGCCGGAAGCAGTCGCA,2160
6,TAGCAGTTTCCTTCCCAGAGCCTCCAGGAAGTAACA,1890
7,CCTGGGAGGAAGTGGAGAGTCAGCAGGAAGTAGAAC,3370
8,CGGGGCGGAACCAGCCTAGCTTCTGCTTCCGGTGCG,6130
9,GGACCGGAAAAGGCCCCACCGACGGCCCGGAAGGTG,10800
10,CGGCCCTTCCATTTCCTGCCTTCCTGCCTGCATTTG,24200
11,GCCTGGAGGAGGAAATGCCTCCGGGAAATGGAAATG,2080
12,CTAAGGAGGAAACGGCTCAGAGAGGGGAAGTGTTTG,509
13,CTGCAGAAGAAGCGGAAGAGGAAGCTGGATAAGTCC,765
14,AGCCGGCTTTCCGGTGCCGCCACATTCCGGGCACCA,12700
15,TGGCTTTATGGGATGTGTTCATTTCCTGTGGCTGTG,5590
16,ACAACCTTTAAACTTCCGGTTTCCTCTGTGCGAGGT,56700
17,AAACACACCATCCTGTTCTAGGACATCCTGTGCCTG,4870
18,CCTGGGAGGAAGTGACCCAAGAGCAGGAAGTGCGGG,5080
19,AATCCACAACTTCCTCCACCTACTTCCTGGCTATAT,11300
20,CCTAACTTCCTTTCTCTGCCACTGACTTCCTGTTGT,16100
21,CACCATGGGAGGAAGTGGCCTGGGAAGTTGAAACAA,2550
22,TCCCCAAACCAAGGAAGCCATTTCCTTCTCTAGGAC,501
23,GCCCTTCCGGTTATTTCCCTTCCTGTTTGTCTGCCT,48700
24,TTGTTTCATTGTTTCCTTGTAGGATGTGGTTTCAAG,196
25,CAGAACACAGGAAACGCCTCTTCTTTCCTGTGACCA,9270
26,TCGGACCGGAAGGAGTTGTTGGCGCTTCCGGTGGCC,15900
